The other results are listed elsewhere or left out. Repeats are few or missing, and single values can be far off.
System: MZ2-MEL
Assay: cell count relative to DMSO control; melanoma cells; higher = more viable cells
Details: library dose: standard library concentration; 72 h
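Further: cells treated in 1,536-well plates, then fixed and DAPI-stained, with nuclei counted from automated high-throughput microscope images.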

SMILES | cell count
COc1cc([C@@H]2c3cc4c(cc3[C@@H](O[C@@H]3O[C@@H]5CO[C@@H](C)O[C@H]5[C@H](O)[C@H]3O)[C@H]3COC(=O)[C@H]23)OCO4)cc(OC)c1O [etoposide] + NC(=O)Nc1cc(-c2cccc(F)c2)sc1C(=O)N[C@H]1CCCNC1 [AZD7762] (first compound 0.1 µM, partner dose 0.1 µM) | 101%
CCN(CC)CCNC(=O)c1c(C)[nH]c(/C=C2\C(=O)Nc3ccc(F)cc32)c1C [sunitinib] + Nc1ccn([C@@H]2O[C@H](CO)[C@@H](O)C2(F)F)c(=O)n1 [gemcitabine] (first compound 2 µM, partner dose 0.002 µM) | 67.8%
C[C@]1(O)C[C@@H](c2nc(-c3ccc4ccc(-c5ccccc5)nc4c3)c3c(N)nccn32)C1 + O=C(O)c1ccc2c(c1)nc(Nc1cccc(Cl)c1)c1ccncc12 [CX4945] (first compound 2 µM, partner dose 2 µM) | 70.8%
COc1cc([C@@H]2c3cc4c(cc3[C@@H](O[C@@H]3O[C@@H]5CO[C@@H](C)O[C@H]5[C@H](O)[C@H]3O)[C@H]3COC(=O)[C@H]23)OCO4)cc(OC)c1O [etoposide] + CS(=O)(=O)c1ccc(C(=O)Nc2ccc(Cl)c(-c3ccccn3)c2)c(Cl)c1 [vismodegib] (first compound 0.1 µM, partner dose 5 µM) | 80.5%
Cn1cnc2c(F)c(Nc3ccc(Br)cc3Cl)c(C(=O)NOCCO)cc21 [selumetinib] + COC(=O)c1sccc1S(=O)(=O)Nc1ccc(Nc2ccccc2)cc1OC [GSK0660] (first compound 0.075 µM, partner dose 5 µM) | 71.6%
CCN(CC)CCNC(=O)c1c(C)[nH]c(/C=C2\C(=O)Nc3ccc(F)cc32)c1C [sunitinib] + COc1cc(Nc2ncc(F)c(Nc3ccc4c(n3)NC(=O)C(C)(C)O4)n2)cc(OC)c1OC [Tamatinib] (first compound 2 µM, partner dose 2 µM) | 82.4%
Cn1cnc2c(F)c(Nc3ccc(Br)cc3Cl)c(C(=O)NOCCO)cc21 [selumetinib] + CC(C)(C)c1cnc(CSc2cnc(NC(=O)C3CCNCC3)s2)o1 [SNS-032] (first compound 0.075 µM, partner dose 0.05 µM) | 47.2%
C[C@]1(O)C[C@@H](c2nc(-c3ccc4ccc(-c5ccccc5)nc4c3)c3c(N)nccn32)C1 + CCN(CC)CCNC(=O)c1c(C)[nH]c(/C=C2\C(=O)Nc3ccc(F)cc32)c1C [sunitinib] (first compound 2 µM, partner dose 2 µM) | 119%
COc1cc([C@@H]2c3cc4c(cc3[C@@H](O[C@@H]3O[C@@H]5CO[C@@H](C)O[C@H]5[C@H](O)[C@H]3O)[C@H]3COC(=O)[C@H]23)OCO4)cc(OC)c1O [etoposide] + O=C(Nc1cccc(Cl)c1)Nc1ncc(CCNc2ncnc3ccsc23)s1 [SNS314] (first compound 0.1 µM, partner dose 0.004 µM) | 56.5%
CCN(CC)CCNC(=O)c1c(C)[nH]c(/C=C2\C(=O)Nc3ccc(F)cc32)c1C [sunitinib] + CCCS(=O)(=O)Nc1ccc(F)c(C(=O)c2c[nH]c3ncc(Cl)cc23)c1F [PLX4720] (first compound 2 µM, partner dose 0.4 µM) | 94.5%
C[C@]1(O)C[C@@H](c2nc(-c3ccc4ccc(-c5ccccc5)nc4c3)c3c(N)nccn32)C1 + Nc1cccc2c1CN(C1CCC(=O)NC1=O)C2=O [lenalidomide] (first compound 2 µM, partner dose 5 µM) | 106%
Cn1cnc2c(F)c(Nc3ccc(Br)cc3Cl)c(C(=O)NOCCO)cc21 [selumetinib] + CCc1ccc(CCOc2ccc(CC3SC(=O)NC3=O)cc2)nc1 [pioglitazone] (first compound 0.075 µM, partner dose 10 µM) | 67.5%
CCN(CC)CCNC(=O)c1c(C)[nH]c(/C=C2\C(=O)Nc3ccc(F)cc32)c1C [sunitinib] + CCCCCCCCc1ccc(CCC(N)(CO)CO)cc1 [fingolimod] (first compound 2 µM, partner dose 10 µM) | 1.42%
CCN(CC)CCNC(=O)c1c(C)[nH]c(/C=C2\C(=O)Nc3ccc(F)cc32)c1C [sunitinib] + NCC(=O)Nc1ccc(-n2nc(C(F)(F)F)cc2-c2ccc3c(ccc4ccccc43)c2)cc1 [OSU03012] (first compound 2 µM, partner dose 5 µM) | 95.9%
Cn1cnc2c(F)c(Nc3ccc(Br)cc3Cl)c(C(=O)NOCCO)cc21 [selumetinib] + O=C(O)C(=O)Nc1sc2c(c1C(=O)O)CCNC2 [TCS401] (first compound 0.075 µM, partner dose 8.33333 µM) | 76.8%
COc1cc([C@@H]2c3cc4c(cc3[C@@H](O[C@@H]3O[C@@H]5CO[C@@H](C)O[C@H]5[C@H](O)[C@H]3O)[C@H]3COC(=O)[C@H]23)OCO4)cc(OC)c1O [etoposide] + C=C(c1ccc(C(=O)O)cc1)c1cc2c(cc1C)C(C)(C)CCC2(C)C [Bexarotene] (first compound 0.1 µM, partner dose 10 µM) | 72.6%
C[C@]1(O)C[C@@H](c2nc(-c3ccc4ccc(-c5ccccc5)nc4c3)c3c(N)nccn32)C1 + C=C(c1ccc(C(=O)O)cc1)c1cc2c(cc1C)C(C)(C)CCC2(C)C [Bexarotene] (first compound 2 µM, partner dose 10 µM) | 70.9%
C[C@]1(O)C[C@@H](c2nc(-c3ccc4ccc(-c5ccccc5)nc4c3)c3c(N)nccn32)C1 + NC1(c2ccc(-c3nc4ccn5c(=O)[nH]nc5c4cc3-c3ccccc3)cc2)CCC1 [MK2206] (first compound 2 µM, partner dose 2 µM) | 103%
COc1cc([C@@H]2c3cc4c(cc3[C@@H](O[C@@H]3O[C@@H]5CO[C@@H](C)O[C@H]5[C@H](O)[C@H]3O)[C@H]3COC(=O)[C@H]23)OCO4)cc(OC)c1O [etoposide] + Cn1c(Nc2ccc(C(F)(F)F)cc2)nc2cc(Oc3ccnc(-c4ncc(C(F)(F)F)[nH]4)c3)ccc21 [CHIR265] (first compound 0.1 µM, partner dose 0.4 µM) | 29.8%
Cn1cnc2c(F)c(Nc3ccc(Br)cc3Cl)c(C(=O)NOCCO)cc21 [selumetinib] + O=c1cc(-c2cccc3c2Sc2ccccc2S3)oc(N2CCOCC2)c1 [KU55933] (first compound 0.075 µM, partner dose 5 µM) | 56.1%
C[C@]1(O)C[C@@H](c2nc(-c3ccc4ccc(-c5ccccc5)nc4c3)c3c(N)nccn32)C1 + Nc1ncn([C@H]2C[C@H](O)[C@@H](CO)O2)c(=O)n1 [decitabine] (first compound 2 µM, partner dose 0.5 µM) | 76.7%
COc1cc([C@@H]2c3cc4c(cc3[C@@H](O[C@@H]3O[C@@H]5CO[C@@H](C)O[C@H]5[C@H](O)[C@H]3O)[C@H]3COC(=O)[C@H]23)OCO4)cc(OC)c1O [etoposide] + O=C(Nc1ccccc1)c1cc([N+](=O)[O-])ccc1Cl [GW9662] (first compound 0.1 µM, partner dose 10 µM) | 62.8%
CCN(CC)CCNC(=O)c1c(C)[nH]c(/C=C2\C(=O)Nc3ccc(F)cc32)c1C [sunitinib] + NC1(c2ccc(-c3nc4ccn5c(=O)[nH]nc5c4cc3-c3ccccc3)cc2)CCC1 [MK2206] (first compound 2 µM, partner dose 2 µM) | 85.6%
Cn1cnc2c(F)c(Nc3ccc(Br)cc3Cl)c(C(=O)NOCCO)cc21 [selumetinib] + COCC[n+]1c2c(n(Cc3cnccn3)c1C)C(=O)c1ccccc1C2=O [YM155] (first compound 0.075 µM, partner dose 0.002 µM) | 51.3%
Cn1cnc2c(F)c(Nc3ccc(Br)cc3Cl)c(C(=O)NOCCO)cc21 [selumetinib] + NC1(c2ccc(-c3nc4ccn5c(=O)[nH]nc5c4cc3-c3ccccc3)cc2)CCC1 [MK2206] (first compound 0.075 µM, partner dose 2 µM) | 50.7%
COc1cc([C@@H]2c3cc4c(cc3[C@@H](O[C@@H]3O[C@@H]5CO[C@@H](C)O[C@H]5[C@H](O)[C@H]3O)[C@H]3COC(=O)[C@H]23)OCO4)cc(OC)c1O [etoposide] + COc1cc(Nc2ncc(F)c(Nc3ccc4c(n3)NC(=O)C(C)(C)O4)n2)cc(OC)c1OC [Tamatinib] (first compound 0.1 µM, partner dose 2 µM) | 59.1%
Cn1cnc2c(F)c(Nc3ccc(Br)cc3Cl)c(C(=O)NOCCO)cc21 [selumetinib] + CC(C)C[C@H](NC(=O)[C@H](Cc1ccccc1)NC(=O)c1cnccn1)B(O)O [Bortezomib] (first compound 0.075 µM, partner dose 0.005 µM) | 4.69%
COc1cc([C@@H]2c3cc4c(cc3[C@@H](O[C@@H]3O[C@@H]5CO[C@@H](C)O[C@H]5[C@H](O)[C@H]3O)[C@H]3COC(=O)[C@H]23)OCO4)cc(OC)c1O [etoposide] + Oc1nc(-c2ccc(C(F)(F)F)cc2)nc2c1CSCC2 [XAV939] (first compound 0.1 µM, partner dose 10 µM) | 74.5%
COc1cc([C@@H]2c3cc4c(cc3[C@@H](O[C@@H]3O[C@@H]5CO[C@@H](C)O[C@H]5[C@H](O)[C@H]3O)[C@H]3COC(=O)[C@H]23)OCO4)cc(OC)c1O [etoposide] + COc1ccc(C2=N[C@@H](c3ccc(Cl)cc3)[C@@H](c3ccc(Cl)cc3)N2C(=O)N2CCNC(=O)C2)c(OC(C)C)c1 [Nutlin-3] (first compound 0.1 µM, partner dose 0.5 µM) | 65.3%

— the supplement of paper PMC4604168 (melanoma cell lines)
